# Measurements as given in the supplement of paper PMC3334620.
# In all, about 33,000 sequences were measured (“E-score (-0.5 to 0.5)”: median about -0.043, highest 2% from about 0.37 on). This is one part of the list.
# Target: T1, Upc2 (UniProt Q12151)
# T1 sequence: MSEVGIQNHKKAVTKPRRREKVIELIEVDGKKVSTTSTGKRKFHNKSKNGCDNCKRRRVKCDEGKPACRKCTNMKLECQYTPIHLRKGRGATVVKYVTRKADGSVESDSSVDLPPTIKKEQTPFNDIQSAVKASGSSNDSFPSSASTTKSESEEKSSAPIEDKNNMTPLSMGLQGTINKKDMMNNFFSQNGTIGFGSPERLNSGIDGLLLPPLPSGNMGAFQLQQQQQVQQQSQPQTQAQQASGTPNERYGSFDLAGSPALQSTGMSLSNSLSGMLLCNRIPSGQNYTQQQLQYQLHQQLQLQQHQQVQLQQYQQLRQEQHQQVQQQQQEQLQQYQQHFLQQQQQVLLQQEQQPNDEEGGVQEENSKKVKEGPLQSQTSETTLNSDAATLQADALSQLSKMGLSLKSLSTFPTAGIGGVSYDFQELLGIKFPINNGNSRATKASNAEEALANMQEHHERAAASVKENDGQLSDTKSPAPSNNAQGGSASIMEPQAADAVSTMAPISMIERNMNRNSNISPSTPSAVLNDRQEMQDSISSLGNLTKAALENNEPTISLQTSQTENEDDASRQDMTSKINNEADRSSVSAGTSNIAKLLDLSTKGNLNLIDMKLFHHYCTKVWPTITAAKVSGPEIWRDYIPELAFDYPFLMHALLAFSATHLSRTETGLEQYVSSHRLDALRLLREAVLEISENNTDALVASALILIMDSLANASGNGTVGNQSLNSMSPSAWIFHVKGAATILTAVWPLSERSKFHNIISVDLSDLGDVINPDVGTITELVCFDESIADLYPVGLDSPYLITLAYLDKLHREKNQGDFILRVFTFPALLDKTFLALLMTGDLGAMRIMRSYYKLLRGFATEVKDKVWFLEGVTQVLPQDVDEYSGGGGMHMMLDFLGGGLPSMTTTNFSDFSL
# Test: PBM E-score (8-mer binding enrichment) (E-score (-0.5 to 0.5)); higher = stronger / more preferred TF binding; most listed sequences are background and not binding sites
# Details: protein concentration: 200 nM; construct: GST-full length
# Outline: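 PURExpress in vitro transcription/translation supplied GST-tagged yeast transcription factors, either full-length or DNA-binding domain. Applied at about 100-200 nM to universal all-10-mer Agilent arrays double-stranded by primer extension, the bound protein was detected with fluorescent anti-GST. E-scores, modified Wilcoxon-Mann-Whitney statistics, were given by the Universal PBM Analysis Suite to ungapped eight-base words pooled with their reverse complements after masliner normalisation.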
row,Sequence,PBM E-score
1,AACAGTGG,-0.123
2,CCTACCCC,-0.00901
3,GATAGTAC,0.00652
4,CTGCCGAC,0.03
5,ACATAAAA,0.0446
6,AAATCAGA,-0.0799
7,CCCCGGAA,-0.159
8,CAACCTGG,-0.109
9,CCTCCCCC,-0.292
10,CATCGAGG,0.0235
11,AGTGCCCC,-0.256
12,GTGCTCAA,0.0126
13,ACCCACTA,-0.0604
14,TAGGGTAA,0.0122
15,ACGTGAAA,0.0802
16,CGCCATTC,-0.167
17,ATCATGAT,0.11
18,ACGTCAAG,-0.0187
19,AAGGCACA,-0.124
20,GGTCATAA,-0.0481
21,CCGTGCAC,-0.14
22,AAATGCCA,-0.142
23,GGCGCGAC,0.0597
24,AGAAAGTA,-0.0281
25,TCTCTCCA,-0.118

row,Sequence,PBM E-score
1,TCCCAGAA,0.0528
2,CCTTACTA,0.029
3,ACACTGTA,0.106
4,ATTATTTA,0.0995
5,ATATTCGA,0.185
6,ACGTGTAA,0.0268
7,AAGCGCAG,-0.0347
8,CAAGGACC,-0.0122
9,ATCCTCCC,-0.189
10,CATTACCA,-0.113
11,AGGCGGGG,-0.0481
12,AATCAATC,-0.0483
13,CTCCGTTA,0.0683
14,GATGTTAA,-0.0488
15,ACAGATAA,-0.126
16,AGCGTACC,0.212
17,CCCGAATC,-0.0515
18,TCGCCTCA,-0.0427
19,GTATGCGA,0.357
20,CAGATGCC,-0.112
21,CCATTCAG,-0.352
22,GACGGGGA,-0.0559
23,CGCGGGCC,-0.172
24,CGTGGAAC,0.112
25,ATTGTGGA,-0.191

row,Sequence,PBM E-score
1,ACGTGAAC,0.289
2,GCTTTGAA,0.0379
3,TGATCCCA,-0.295
4,ATGTAGTC,-0.097
5,CACTACAG,-0.181
6,GGTAACCA,-0.169
7,CGGAGTAC,0.199
8,CACTTCTA,-0.152
9,CTGATCAC,-0.26
10,AAGAACGA,0.408
11,CATCGGGG,-0.184
12,AAAGGCTG,-0.293
13,CGCACTTA,-0.118
14,TCGGTACA,0.108
15,ACGTCAGG,-0.204
16,AAAAGCCA,-0.0725
17,CCCGCAGG,-0.0802
18,TAGTACAA,0.00376
19,CCCGTGAG,-0.17
20,CATGGTAC,-0.00424
21,GGATGGGA,0.063
22,AGGTCCTA,-0.0622
23,GCTTGGTA,0.057
24,ATTAATAA,0.0142
25,ATCTCCGG,-0.0466

row,Sequence,PBM E-score
1,ATCCTATG,-0.066
2,AACGAGCA,0.444
3,GCTCCAAA,-0.0579
4,AATAGTCA,-0.0817
5,AGCAGGCC,-0.148
6,AACGTCTC,0.117
7,CTACGCTA,-0.04
8,ATTTAAGG,-0.064
9,TGAGGGAA,-0.084
10,AATCATGG,-0.197
11,CTGTGAGC,0.0332
12,ATCTCGAA,0.038
13,ATTTCTGG,-0.104
14,GGAGGATA,-0.132
15,ATAATAGC,-0.0244
16,CAACGCAC,-0.0166
17,CTAGTCTC,-0.0707
18,TACACGTA,0.191
19,AATGAGGT,-0.0435
20,CCCTACAC,-0.0225
21,CGTCATCA,0.0642
22,AAGGATCG,0.271
23,CCCACAAG,0.0134
24,CAAGGAGC,-0.149
25,CATGACTA,-0.00188

row,Sequence,PBM E-score
1,AATTAATG,-0.0149
2,ACCTATCC,-0.00458
3,CACTTAGC,-0.194
4,ACTTGTGG,-0.162
5,CCTGTTCA,-0.0135
6,AAATTTTC,0.0349
7,CAAACTTC,-0.0798
8,AGGTACTA,-0.24
9,CCCTGGGC,-0.236
10,CCGGGGCC,-0.19
11,CCCCCCCC,-0.353
12,TCGAGACA,0.0571
13,ATTCCTGA,-0.155
14,AAATGACA,-0.14
15,CTGCTACA,-0.0733
16,CGCGGAGA,-0.0104
17,CCGTGTCA,-0.245
18,TCGACTAA,-0.082
19,AACCCTAG,-0.0316
20,TGTCGCAA,0.174
21,GTCCGATA,0.108
22,CACGGACC,0.0136
23,AAAACAGC,0.0339
24,CCCCGGTA,0.0114
25,CACCCCCC,-0.264

row,Sequence,PBM E-score
1,AGTATCCG,0.0553
2,ATATCCGA,0.267
3,ACGGAGTC,0.105
4,ATTGTGGC,-0.0686
5,AAACGACC,0.458
6,AAACCTCA,0.0265
7,CGTCCAGC,-0.142
8,GCATGAGC,-0.107
9,ACACAGGA,-0.0406
10,CCGTAGTC,0.0316
11,GAATGAGC,-0.126
12,GAGCTGGC,-0.0546
13,GAGGACGC,-0.0341
14,CGGTGAAA,0.247
15,AAGAAGAT,-0.109
16,GGGGCACC,-0.0703
17,ATACAATG,-0.272
18,AATGGGAA,-0.28
19,AACATGGC,-0.157
20,ATGAGTAA,0.00725
21,AGAAAGTG,-0.163
22,ATTGCATC,0.0605
23,CTTTTCCC,0.172
24,AAAGTAAA,0.0446
25,GCAATAGA,0.184

row,Sequence,PBM E-score
1,AACACGTT,0.0498
2,CTCCTTTA,-0.0264
3,ATGCTATA,0.0631
4,AAGAAATA,-0.0215
5,ATCACAAC,0.0203
6,TCTGCAAA,0.0312
7,AGAGCCTA,-0.154
8,AGCGCCGA,-0.111
9,GTACATAC,0.22
10,GAAAAAGC,0.0257
11,ACGAAAAG,0.355
12,CAACTGAC,-0.153
13,GCTCCACA,-0.204
14,CGTCTGAC,0.0257
15,CTAGTGAG,-0.18
16,CTTAACTA,-0.0715
17,ATCTTAAG,-0.0657
18,ATCAGAAA,-0.0919
19,AACGCCCC,0.0859
20,ATTCTCAG,-0.262
21,AATAGGGC,-0.0827
22,ACTTTCAT,-0.0674
